From PMC12820563
The other results are listed elsewhere or left out. The list includes weakly bound sequences.

Biological target: T1, MBP-FoxP3dN (UniProt Q99JB6)
T1 sequence: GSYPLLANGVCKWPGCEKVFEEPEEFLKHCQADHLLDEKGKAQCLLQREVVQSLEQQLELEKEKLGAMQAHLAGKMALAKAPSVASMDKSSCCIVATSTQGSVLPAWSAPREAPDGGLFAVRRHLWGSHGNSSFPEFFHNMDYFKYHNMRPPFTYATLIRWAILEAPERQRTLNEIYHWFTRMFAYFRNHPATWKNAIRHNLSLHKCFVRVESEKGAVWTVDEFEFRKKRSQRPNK
Assay: PD-seq (MBP pull-down with sequencing)
Conditions: 20 mM Tris-HCl pH 7.5, 100 mM NaCl, 1.5 mM MgCl2, 0.4 uM protein, 0.1 uM dsDNA library, 30 min, room temperature, amylose pull-down; high values mean tight binding; double strand, one strand shown

Sequence	binding signal (RPM ratio (pull-down/input))
GATGATTGTTCTCCCAGCTGATGAATTGTTAGGTTCGAGTAAACAAATTTTCCTAATCTTTCTGTTCAAGCGCCATCTAC	1.1
GATGATTGTTCTCCCAGCTGATGAATTAAGGGACTCGAGTAAACAAATTTTCCTAATCTTTCTGTTCAAGCGCCATCTAC	0.385
GATGATTGTTCTCCCAGCTGATGAATTGGGCCTGTCGAGTAAACAAATTTTCCTAATCTTTCTGTTCAAGCGCCATCTAC	3.56
GATGATTGTTCTCCCAGCTGATGAATTCGGCAGCTCGAGTAAACAAATTTTCCTAATCTTTCTGTTCAAGCGCCATCTAC	1.36
GATGATTGTTCTCCCAGCTGATGAATTGGAATCATCGAGTAAACAAATTTTCCTAATCTTTCTGTTCAAGCGCCATCTAC	0.503
GATGATTGTTCTCCCAGCTGATGAATTCTGAAAGTCGAGTAAACAAATTTTCCTAATCTTTCTGTTCAAGCGCCATCTAC	0.204
GATGATTGTTCTCCCAGCTGATGAATTAAGGAGATCGAGTAAACAAATTTTCCTAATCTTTCTGTTCAAGCGCCATCTAC	0.249
GATGATTGTTCTCCCAGCTGATGAATTCAATAGATCGAGTAAACAAATTTTCCTAATCTTTCTGTTCAAGCGCCATCTAC	0.268
GATGATTGTTCTCCCAGCTGATGAATTACTGGGTTCGAGTAAACAAATTTTCCTAATCTTTCTGTTCAAGCGCCATCTAC	0.346
GATGATTGTTCTCCCAGCTGATGAATTCGCCACATCGAGTAAACAAATTTTCCTAATCTTTCTGTTCAAGCGCCATCTAC	1.75
GATGATTGTTCTCCCAGCTGATGAATTATGAGGTTCGAGTAAACAAATTTTCCTAATCTTTCTGTTCAAGCGCCATCTAC	0.544
GATGATTGTTCTCCCAGCTGATGAATTGCGCGGCTCGAGTAAACAAATTTTCCTAATCTTTCTGTTCAAGCGCCATCTAC	1.06
GATGATTGTTCTCCCAGCTGATGAATTGGGAAGATCGAGTAAACAAATTTTCCTAATCTTTCTGTTCAAGCGCCATCTAC	0.198
GATGATTGTTCTCCCAGCTGATGAATTAGAAGGCTCGAGTAAACAAATTTTCCTAATCTTTCTGTTCAAGCGCCATCTAC	0.318
GATGATTGTTCTCCCAGCTGATGAATTATAAGCTTCGAGTAAACAAATTTTCCTAATCTTTCTGTTCAAGCGCCATCTAC	0.414
GATGATTGTTCTCCCAGCTGATGAATTCCTTGGTTCGAGTAAACAAATTTTCCTAATCTTTCTGTTCAAGCGCCATCTAC	0.28
GATGATTGTTCTCCCAGCTGATGAATTAGTGCTATCGAGTAAACAAATTTTCCTAATCTTTCTGTTCAAGCGCCATCTAC	1.16
GATGATTGTTCTCCCAGCTGATGAATTACCTGAGTCGAGTAAACAAATTTTCCTAATCTTTCTGTTCAAGCGCCATCTAC	0.173
GATGATTGTTCTCCCAGCTGATGAATTGGACTATTCGAGTAAACAAATTTTCCTAATCTTTCTGTTCAAGCGCCATCTAC	0.406
GATGATTGTTCTCCCAGCTGATGAATTTAAACAGTCGAGTAAACAAATTTTCCTAATCTTTCTGTTCAAGCGCCATCTAC	0.398

Sequence	binding signal (RPM ratio (pull-down/input))
GATGATTGTTCTCCCAGCTGATGAATTTGTTACGTCGAGTAAACAAATTTTCCTAATCTTTCTGTTCAAGCGCCATCTAC	4.22
GATGATTGTTCTCCCAGCTGATGAATTCGAACGATCGAGTAAACAAATTTTCCTAATCTTTCTGTTCAAGCGCCATCTAC	0.255
GATGATTGTTCTCCCAGCTGATGAATTAATCCCTTCGAGTAAACAAATTTTCCTAATCTTTCTGTTCAAGCGCCATCTAC	0.316
GATGATTGTTCTCCCAGCTGATGAATTGTGCGAATCGAGTAAACAAATTTTCCTAATCTTTCTGTTCAAGCGCCATCTAC	0.484
GATGATTGTTCTCCCAGCTGATGAATTCTACGAGTCGAGTAAACAAATTTTCCTAATCTTTCTGTTCAAGCGCCATCTAC	0.243
GATGATTGTTCTCCCAGCTGATGAATTAGAGGCCTCGAGTAAACAAATTTTCCTAATCTTTCTGTTCAAGCGCCATCTAC	0.756
GATGATTGTTCTCCCAGCTGATGAATTTGTATCATCGAGTAAACAAATTTTCCTAATCTTTCTGTTCAAGCGCCATCTAC	5.48
GATGATTGTTCTCCCAGCTGATGAATTGTATATTTCGAGTAAACAAATTTTCCTAATCTTTCTGTTCAAGCGCCATCTAC	3.17
GATGATTGTTCTCCCAGCTGATGAATTTCTGTCATCGAGTAAACAAATTTTCCTAATCTTTCTGTTCAAGCGCCATCTAC	0.504
GATGATTGTTCTCCCAGCTGATGAATTTACATACTCGAGTAAACAAATTTTCCTAATCTTTCTGTTCAAGCGCCATCTAC	0.936
GATGATTGTTCTCCCAGCTGATGAATTCGTGTCCTCGAGTAAACAAATTTTCCTAATCTTTCTGTTCAAGCGCCATCTAC	1.25
GATGATTGTTCTCCCAGCTGATGAATTGTTTAATTCGAGTAAACAAATTTTCCTAATCTTTCTGTTCAAGCGCCATCTAC	1.2
GATGATTGTTCTCCCAGCTGATGAATTTATTGTTTCGAGTAAACAAATTTTCCTAATCTTTCTGTTCAAGCGCCATCTAC	6.4
GATGATTGTTCTCCCAGCTGATGAATTCTATCGGTCGAGTAAACAAATTTTCCTAATCTTTCTGTTCAAGCGCCATCTAC	0.346
GATGATTGTTCTCCCAGCTGATGAATTGTTGCGATCGAGTAAACAAATTTTCCTAATCTTTCTGTTCAAGCGCCATCTAC	2.69
GATGATTGTTCTCCCAGCTGATGAATTCGGTATTTCGAGTAAACAAATTTTCCTAATCTTTCTGTTCAAGCGCCATCTAC	2.2
GATGATTGTTCTCCCAGCTGATGAATTCCCCGACTCGAGTAAACAAATTTTCCTAATCTTTCTGTTCAAGCGCCATCTAC	0.178
GATGATTGTTCTCCCAGCTGATGAATTGGAGCCCTCGAGTAAACAAATTTTCCTAATCTTTCTGTTCAAGCGCCATCTAC	0.358
GATGATTGTTCTCCCAGCTGATGAATTCTATAAATCGAGTAAACAAATTTTCCTAATCTTTCTGTTCAAGCGCCATCTAC	0.267
GATGATTGTTCTCCCAGCTGATGAATTTCCAAAGTCGAGTAAACAAATTTTCCTAATCTTTCTGTTCAAGCGCCATCTAC	0.159
